According to the supplement of paper PMC3334620:
The full ranking holds about 33,000 sequences; the median of “E-score (-0.5 to 0.5)” is about -0.021, and the highest 2% start at about 0.32. The list shows a part of the results.

biological target: T1, Zap1 (UniProt P47043); assay: PBM E-score (8-mer binding enrichment) (E-score (-0.5 to 0.5)); higher = stronger / more preferred TF binding; most listed sequences are background and not binding sites; details: protein concentration: 200 nM; construct: GST-full length
T1 sequence: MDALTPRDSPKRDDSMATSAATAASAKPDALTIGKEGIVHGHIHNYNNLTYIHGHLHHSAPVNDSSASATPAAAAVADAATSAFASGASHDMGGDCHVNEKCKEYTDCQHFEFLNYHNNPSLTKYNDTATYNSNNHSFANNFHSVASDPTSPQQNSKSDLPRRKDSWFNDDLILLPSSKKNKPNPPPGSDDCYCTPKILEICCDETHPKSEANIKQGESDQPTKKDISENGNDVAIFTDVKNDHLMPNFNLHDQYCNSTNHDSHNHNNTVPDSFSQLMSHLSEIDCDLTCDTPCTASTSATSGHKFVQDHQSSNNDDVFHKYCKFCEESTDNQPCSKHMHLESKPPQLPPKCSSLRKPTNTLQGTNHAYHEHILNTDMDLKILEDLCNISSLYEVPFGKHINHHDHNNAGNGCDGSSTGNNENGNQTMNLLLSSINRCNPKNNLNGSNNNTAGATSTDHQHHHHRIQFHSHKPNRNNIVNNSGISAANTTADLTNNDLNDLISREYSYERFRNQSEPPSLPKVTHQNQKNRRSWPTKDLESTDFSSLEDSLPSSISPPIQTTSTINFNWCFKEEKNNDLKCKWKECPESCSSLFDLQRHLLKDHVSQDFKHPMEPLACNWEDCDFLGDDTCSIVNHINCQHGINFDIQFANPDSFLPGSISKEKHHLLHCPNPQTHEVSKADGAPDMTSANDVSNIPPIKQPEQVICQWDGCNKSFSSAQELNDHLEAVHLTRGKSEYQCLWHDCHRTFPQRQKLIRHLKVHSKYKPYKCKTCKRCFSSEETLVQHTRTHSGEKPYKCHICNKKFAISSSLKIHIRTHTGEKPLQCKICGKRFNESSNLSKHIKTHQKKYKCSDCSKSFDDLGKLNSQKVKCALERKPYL
Procedure, shortened: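 Masliner-normalised scans of fluorescent anti-GST signal were the basis for scoring. That signal came from GST-tagged yeast transcription factors applied at about 100-200 nM to double-stranded universal all-10-mer Agilent arrays on fresh or once-stripped slides. Each ungapped eight-base word, pooled with its reverse complement, received an E-score from the Universal PBM Analysis Suite.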

| Sequence | PBM E-score |
| --- | --- |
| AATGTGAC | 0.0388 |
| GAGCGGAA | -0.162 |
| AGATCCAC | -0.156 |
| AGGACTAA | -0.0464 |
| CACGAGGG | 0.179 |
| ACAGGTAG | 0.13 |
| AGCAAGGA | -0.251 |
| AAACGCGC | -0.156 |
| CGTGTGCA | -0.25 |
| CAAGTGGG | -0.0175 |
| CACCCGTC | 0.0477 |
| CAACGGCC | -0.152 |
| AAGTGTAA | -0.0441 |
| ACTCACTG | 0.211 |
| AACAACAA | 0.181 |
| TCTCGTCA | -0.0679 |
| ATCTATGC | -0.159 |
| CCGACTAA | -0.0761 |
| GATCTCAC | -0.0823 |
| AAGATCAA | 0.152 |
| GACACTAA | 0.0353 |
| AATAGCCA | 0.0218 |
| AATTAATC | 0.0999 |
| GTTGCAAA | 0.154 |
| CTCCGCGC | -0.229 |

| Sequence | PBM E-score |
| --- | --- |
| AGGGTCTC | 0.218 |
| CTGCATGC | 0.0474 |
| AGTGCCTC | -0.116 |
| CGCGATAG | -0.0835 |
| GAGAACTC | -0.146 |
| AAACGCAC | -0.00126 |
| ATCGTACG | -0.102 |
| AACAGCCC | 0.0107 |
| CCCAGGTA | 0.0671 |
| CAATGGGC | -0.167 |
| CCCCTCGA | 0.169 |
| GCTTATAC | -0.144 |
| TCTGGAAA | 0.045 |
| AGAGAGTA | -0.133 |
| GAGGCAAC | -0.184 |
| AAGGGATG | -0.203 |
| TCCACCGA | -0.115 |
| CGCTGCTA | -0.17 |
| GTTGGTAA | 0.184 |
| ACGTCCAA | -0.0463 |
| CGTGGAGA | -0.239 |
| ACGATTCG | -0.103 |
| GGCTTAAC | -0.0011 |
| ATGAGCGG | -0.167 |
| AGACGACA | -0.1 |

| Sequence | PBM E-score |
| --- | --- |
| ACCATAAG | 0.0852 |
| ATATCTGA | 0.0283 |
| GAGATTGA | -0.0354 |
| ATGCCGCA | 0.0134 |
| ACCTGGAA | 0.22 |
| CATTCCCA | -0.203 |
| GACCAAGA | 0.0225 |
| CAGACGTA | -0.0838 |
| CAGGGATA | -0.0154 |
| TTCACAAA | 0.135 |
| GCTCATCC | -0.215 |
| CCCAGCTA | -0.152 |
| AAACCGCC | 0.173 |
| CGCACGTA | -0.125 |
| ACGCCCCC | -0.261 |
| TTACCTAA | 0.175 |
| GAATATTA | 0.137 |
| GGGCGTAC | 0.0025 |
| CTGCGGTA | 0.265 |
| ACCATTTA | 0.189 |
| CCAATGCG | -0.0619 |
| GTTGAAGA | -0.0696 |
| CGCCCAAC | -0.176 |
| CAATGCGA | -0.11 |
| ACCGCTGG | 0.0967 |

| Sequence | PBM E-score |
| --- | --- |
| AGGGACAG | -0.248 |
| TCATTGCA | 0.0366 |
| AGAGTAAT | 0.0866 |
| TCTCAACA | 0.205 |
| GAACTCGC | 0.00491 |
| CCCGCGCC | -0.0593 |
| ACTTCCAG | -0.265 |
| AGTAGCCG | -0.123 |
| AGAACGTA | -0.186 |
| AATTAGCG | -0.0254 |
| GAAGAGGA | -0.272 |
| ACTCTTCT | -0.248 |
| AGGTCCGA | -0.0292 |
| CTAGCTCC | -0.246 |
| ATTCTAAG | 0.118 |
| AATGTCTC | -0.203 |
| AACAATGA | 0.108 |
| CCCTCCCC | 0.147 |
| CCACCCCG | 0.0489 |
| CCTCAAAC | 0.0422 |
| ATGTGAAG | -0.00714 |
| CATCATTC | -0.157 |
| AATTGAAA | 0.19 |
| TGTAGTAA | 0.035 |
| GATAATCA | 0.0211 |

| Sequence | PBM E-score |
| --- | --- |
| CACTGAGG | 0.0409 |
| GCTCTAAC | -0.1 |
| CCAGAATC | -0.00435 |
| ATTCTGAC | -0.125 |
| CTCGGCTC | -0.0891 |
| CAGAAGTA | 0.202 |
| CATGGGGC | -0.0561 |
| GCAGCCAA | -0.00309 |
| ATGAGTGA | 0.1 |
| TCAACCCA | 0.185 |
| AGGTAAGC | -0.0806 |
| TCAGTGGA | -0.041 |
| CCAGCCGG | 0.0706 |
| ACAAACGA | 0.186 |
| TGCACGAA | 0.0909 |
| AGTGATAG | -0.0294 |
| TCAAAAAA | 0.202 |
| AAGTAACT | -0.0363 |
| ACTGTTAT | 0.159 |
| ATCTGCAT | 0.0146 |
| ATCGACCG | -0.132 |
| CGAGTTGC | -0.108 |
| GCCTCACA | -0.0151 |
| CGAAATCA | 0.217 |
| CGAGAAGA | -0.0799 |

| Sequence | PBM E-score |
| --- | --- |
| ATCGCGAA | 0.22 |
| CTGGGCGA | -0.18 |
| AAGGCGAT | -0.181 |
| AACACTTA | -0.0773 |
| CATGGATA | 0.0373 |
| GCGAAAAC | 0.0649 |
| AATAACGT | 0.0381 |
| CGGGAGTC | -0.00889 |
| CGTTAACA | 0.00812 |
| ATAACAGG | 0.0159 |
| AAGATGAG | -0.243 |
| GAGCTAGC | -0.179 |
| CTCGCTAC | -0.136 |
| CCAAGGGG | 0.194 |
| GATAGTGA | -0.119 |
| AAACCATA | 0.202 |
| GAGCCATA | 0.0499 |
| CCACGCGA | 0.0769 |
| AAGAGCAC | -0.0466 |
| CGTGTCGC | -0.0752 |
| CACCAACC | 0.131 |
| ACAATTAA | 0.142 |
| ACAGTCAG | -0.111 |
| CACACTGG | -0.204 |
| CAATCAGA | -0.147 |

| Sequence | PBM E-score |
| --- | --- |
| AGAAGCGA | -0.0497 |
| CATATGCG | -0.0511 |
| AACCTCAA | 0.263 |
| GGCTCTTA | -0.27 |
| CGTATTTC | -0.0254 |
| GTCCGGTA | -0.172 |
| ATTTACCG | -0.0582 |
| ATGGGGTA | 0.326 |
| TCGGAAGA | -0.143 |
| ATGGATCC | -0.13 |
| GATTCGAC | 0.0184 |
| GGGTTGTA | 0.35 |
| GTACCAAA | 0.259 |
| CGAGGACG | -0.0989 |
| TGCGCGAA | 0.127 |
| TCCATCGA | -0.0964 |
| AAATCGCG | 0.0597 |
| GGTAGAGA | 0.0668 |
| CAATACCA | 0.241 |
| TCTACTAA | 0.201 |
| ACGGAGCA | -0.338 |
| ACTTTACT | -0.00115 |
